# Assay results published in publication PMC3938053.
# The chains behind the UniProt entries cited, without tags or fusion partners. Where a name states a change or a piece, a line headed by the entry shows the natural chain unless it says otherwise.
# UniProt Q15797: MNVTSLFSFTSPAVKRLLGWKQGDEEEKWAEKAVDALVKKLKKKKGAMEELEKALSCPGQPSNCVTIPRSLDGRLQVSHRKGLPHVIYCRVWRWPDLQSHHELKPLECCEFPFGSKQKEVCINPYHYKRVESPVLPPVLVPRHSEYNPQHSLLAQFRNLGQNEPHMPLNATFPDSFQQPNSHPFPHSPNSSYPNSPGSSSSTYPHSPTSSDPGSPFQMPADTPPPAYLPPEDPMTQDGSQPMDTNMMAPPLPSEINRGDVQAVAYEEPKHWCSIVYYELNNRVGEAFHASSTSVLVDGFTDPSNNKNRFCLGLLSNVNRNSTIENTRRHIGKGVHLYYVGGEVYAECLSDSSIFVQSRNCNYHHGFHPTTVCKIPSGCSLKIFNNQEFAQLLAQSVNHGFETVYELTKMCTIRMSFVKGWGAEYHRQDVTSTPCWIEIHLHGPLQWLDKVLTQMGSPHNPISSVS
# UniProt Q13485: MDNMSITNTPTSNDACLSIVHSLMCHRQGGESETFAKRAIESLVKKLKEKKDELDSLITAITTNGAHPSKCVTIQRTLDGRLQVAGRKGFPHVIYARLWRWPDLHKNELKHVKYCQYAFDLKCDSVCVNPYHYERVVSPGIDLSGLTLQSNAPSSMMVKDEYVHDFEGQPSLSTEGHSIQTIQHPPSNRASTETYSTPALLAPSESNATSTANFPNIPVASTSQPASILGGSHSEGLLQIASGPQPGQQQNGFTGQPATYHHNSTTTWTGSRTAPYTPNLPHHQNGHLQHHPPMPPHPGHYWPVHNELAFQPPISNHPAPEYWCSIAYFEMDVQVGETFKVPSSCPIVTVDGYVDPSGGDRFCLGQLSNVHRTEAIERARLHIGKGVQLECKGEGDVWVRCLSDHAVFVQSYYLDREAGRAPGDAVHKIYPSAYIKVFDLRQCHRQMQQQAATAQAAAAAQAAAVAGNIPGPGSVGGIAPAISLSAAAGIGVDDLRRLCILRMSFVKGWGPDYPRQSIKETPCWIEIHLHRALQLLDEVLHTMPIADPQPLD
# UniProt Q99717: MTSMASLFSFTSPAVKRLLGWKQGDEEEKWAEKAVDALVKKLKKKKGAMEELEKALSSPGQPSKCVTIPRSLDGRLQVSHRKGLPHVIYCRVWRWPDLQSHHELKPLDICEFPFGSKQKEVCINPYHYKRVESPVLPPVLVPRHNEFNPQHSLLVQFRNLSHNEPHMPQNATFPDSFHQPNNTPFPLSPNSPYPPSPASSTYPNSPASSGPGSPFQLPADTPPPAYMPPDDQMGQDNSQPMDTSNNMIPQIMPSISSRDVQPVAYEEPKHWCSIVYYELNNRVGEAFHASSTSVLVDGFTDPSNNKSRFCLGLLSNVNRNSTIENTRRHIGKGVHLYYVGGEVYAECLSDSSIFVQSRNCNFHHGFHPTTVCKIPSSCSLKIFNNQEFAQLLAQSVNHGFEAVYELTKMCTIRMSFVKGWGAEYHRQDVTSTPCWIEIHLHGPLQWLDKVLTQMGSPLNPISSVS
# UniProt O15198: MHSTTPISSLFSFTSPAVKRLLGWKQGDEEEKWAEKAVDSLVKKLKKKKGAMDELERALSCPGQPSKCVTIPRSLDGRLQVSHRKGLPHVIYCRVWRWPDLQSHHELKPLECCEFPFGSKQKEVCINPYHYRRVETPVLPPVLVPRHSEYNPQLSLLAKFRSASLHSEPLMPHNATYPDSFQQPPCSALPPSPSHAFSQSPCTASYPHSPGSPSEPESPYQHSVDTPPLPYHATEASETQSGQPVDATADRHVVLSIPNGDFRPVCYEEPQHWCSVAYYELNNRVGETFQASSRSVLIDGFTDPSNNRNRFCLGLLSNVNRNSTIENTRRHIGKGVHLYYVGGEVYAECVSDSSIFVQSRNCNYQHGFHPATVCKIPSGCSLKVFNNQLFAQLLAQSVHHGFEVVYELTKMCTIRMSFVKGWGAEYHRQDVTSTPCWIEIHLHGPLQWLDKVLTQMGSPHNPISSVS
# UniProt Q15796: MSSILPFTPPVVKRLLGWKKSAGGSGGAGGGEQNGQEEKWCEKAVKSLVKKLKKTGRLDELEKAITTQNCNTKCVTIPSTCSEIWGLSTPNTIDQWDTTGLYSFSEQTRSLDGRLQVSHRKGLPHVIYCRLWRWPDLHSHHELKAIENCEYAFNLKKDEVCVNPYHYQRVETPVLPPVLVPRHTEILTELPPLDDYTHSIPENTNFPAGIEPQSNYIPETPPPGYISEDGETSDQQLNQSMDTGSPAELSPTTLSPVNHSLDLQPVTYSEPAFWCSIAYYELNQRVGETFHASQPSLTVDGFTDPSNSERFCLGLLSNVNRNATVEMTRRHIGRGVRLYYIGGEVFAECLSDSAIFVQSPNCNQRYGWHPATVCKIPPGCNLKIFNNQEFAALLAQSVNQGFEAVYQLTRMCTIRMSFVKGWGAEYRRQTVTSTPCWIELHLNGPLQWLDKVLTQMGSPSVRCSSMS
# UniProt P84022: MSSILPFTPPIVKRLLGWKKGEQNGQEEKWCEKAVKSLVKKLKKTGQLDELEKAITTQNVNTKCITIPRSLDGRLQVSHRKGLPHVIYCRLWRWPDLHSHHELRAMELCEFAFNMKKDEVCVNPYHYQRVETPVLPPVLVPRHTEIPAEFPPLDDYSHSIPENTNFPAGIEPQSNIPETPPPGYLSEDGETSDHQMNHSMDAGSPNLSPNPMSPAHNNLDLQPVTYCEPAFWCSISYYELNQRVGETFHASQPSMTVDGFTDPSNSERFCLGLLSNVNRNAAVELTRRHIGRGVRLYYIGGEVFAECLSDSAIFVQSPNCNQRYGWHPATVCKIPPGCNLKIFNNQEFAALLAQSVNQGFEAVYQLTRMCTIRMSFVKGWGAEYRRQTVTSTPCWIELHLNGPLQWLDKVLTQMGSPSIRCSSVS
# Results are given in words; binding and its absence hold for the method and conditions named. For part of these data: Binding seen in cells or lysates may run through a third protein. Some binding calls cover weakened binding; strength is not graded here. For part of these data: Tags and fused reporters may be left off the sequences shown.
# What was measured:
# [1] = biological target: T1, FLAG-PAWS1 (human) (UniProt A6ND36); test: co-IP; HEK293 cells co-transfected with FLAG-PAWS1 and HA- or GFP-tagged SMADs or HA-SMAD1 fragments; anti-FLAG IPs immunoblotted; washes with lysis buffer with 0.5 M NaCl
# T1 sequence: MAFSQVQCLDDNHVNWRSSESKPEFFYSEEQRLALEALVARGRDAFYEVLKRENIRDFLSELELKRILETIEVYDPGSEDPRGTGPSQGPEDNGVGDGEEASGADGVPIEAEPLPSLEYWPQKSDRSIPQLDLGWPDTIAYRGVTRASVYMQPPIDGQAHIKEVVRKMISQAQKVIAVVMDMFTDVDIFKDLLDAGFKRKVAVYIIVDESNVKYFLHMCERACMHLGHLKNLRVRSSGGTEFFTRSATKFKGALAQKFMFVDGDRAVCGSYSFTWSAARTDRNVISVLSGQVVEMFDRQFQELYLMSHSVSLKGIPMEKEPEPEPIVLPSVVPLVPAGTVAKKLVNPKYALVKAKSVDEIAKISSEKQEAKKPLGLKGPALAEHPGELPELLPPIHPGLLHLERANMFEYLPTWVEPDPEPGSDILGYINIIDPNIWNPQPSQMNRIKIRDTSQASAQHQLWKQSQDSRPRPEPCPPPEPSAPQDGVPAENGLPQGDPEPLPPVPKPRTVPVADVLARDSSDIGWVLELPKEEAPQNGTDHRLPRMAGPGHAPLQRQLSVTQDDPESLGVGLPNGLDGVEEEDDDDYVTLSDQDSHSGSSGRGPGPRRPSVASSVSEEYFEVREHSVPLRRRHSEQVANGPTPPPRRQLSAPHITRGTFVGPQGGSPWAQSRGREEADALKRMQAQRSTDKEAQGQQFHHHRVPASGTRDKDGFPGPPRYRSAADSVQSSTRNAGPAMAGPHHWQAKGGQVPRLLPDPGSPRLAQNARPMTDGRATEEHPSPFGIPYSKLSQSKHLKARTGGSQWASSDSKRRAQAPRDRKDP
# [2] = biological target: T2, PAWS1, endogenous in HaCaT cells (human (endogenous in HaCaT)) (UniProt A6ND36); test: SEC; HaCaT extracts (1 mg) from cells untreated or treated with BMP-2 or TGF-β, Superose 6 10/300 GL, 50 mM Tris-HCl 7.5, 150 mM NaCl, 0.03% Brij-35; 32 fractions immunoblotted; SMAD1 IPs from fractions immunoblotted
# T2 sequence: T1 sequence
# [3] = biological target: T2, PAWS1, endogenous in HaCaT cells (human (endogenous in HaCaT)); test: co-IP; endogenous proteins, HaCaT extracts; anti-PAWS1 IP, immunoblots for SMAD1 and SMAD2/3; cells untreated or treated with BMP-2 (25 ng/ml, 1 h) or TGF-β (50 pM, 1 h)
binding [1],binding [2],binding [3],Substance
binds,–,–,GFP-SMAD1 (from UniProt Q15797 1-465)
no binding,–,–,GFP-SMAD4 (from UniProt Q13485 1-552)
binds,–,–,GFP-SMAD5 (from UniProt Q99717 1-465)
binds,–,–,GFP-SMAD8 (from UniProt O15198 1-467)
binds,–,–,HA-MH2 domain of SMAD1 (from UniProt Q15797 271-465) (domain or fragment)
binds,–,–,HA-SMAD1 (from UniProt Q15797 1-465)
no binding,–,–,HA-SMAD2 (from UniProt Q15796 1-467)
no binding,–,–,HA-SMAD3 (from UniProt P84022 1-425)
–,binds,binds,"SMAD1, endogenous in HaCaT cells (from UniProt Q15797 1-465)"
–,–,no binding,"SMAD2, endogenous in HaCaT cells (from UniProt Q15796 1-467)"
–,–,no binding,"SMAD3, endogenous in HaCaT cells (from UniProt P84022 1-425)"
–,no binding,–,"SMAD4, endogenous in HaCaT cells (from UniProt Q13485 1-552)"
–,no binding,–,"TGF-β-induced phospho-SMAD2, endogenous in HaCaT cells (from UniProt Q15796 1-467)"
–,no binding,–,"TGF-β-induced phospho-SMAD3, endogenous in HaCaT cells (from UniProt P84022 1-425)"
